# About 30 (2%) of roughly 1,300 compounds were called active. The inconclusive results got no clear call from the source; some entries with a clear call stand among them for comparison. Calls follow the shape of the dose curve; as a rule, active = well fitted inhibition curve with a large enough effect; inconclusive = small, poorly fitted or top-dose-only effect; inactive = flat fitted curve, though single readings scatter. A potency beside an inconclusive call is a rough fit, not a confirmed value.
# Assay: qHTS for antagonists of the Thyroid Stimulation Hormone Receptor: Hit Validation in HTRF Activity in a Luteinizing Hormone Receptor Cell Line
# Settings: LHR-expressing cell line, cAMP HTRF, antagonist mode; series mostly up to 58 µM; activity change, negative = inhibition: at the top concentration
# Source text: The thyroid-stimulating hormone receptor (TSHR) is a member of the 7 trans-membrane-spanning receptor (7TMR) family of cell surface receptors. TSHR-mediated hyperthyroidism is important in thyroid pathology. The development of small molecule antagonists of TSHR may lead to therapeutic approaches for TSHR-mediated hyperthyroidism caused by constitutively activating mutations or stimulating auto-antibodies associated with Graves' disease. Graves' disease is the leading cause of hyperthyroidism and is caused by autoantibodies that stimulate TSHR (TsAbs) causing thyroid growth and unregulated overproduction of thyroid hormones and existing treatments have liabilities (agranulocytosis). In addition, TSHRs are known to be expressed in multiple extrathyroidal tissues including bone, brain, kidney, testis, fat and cells of the immune system but the role of the TSHR in these tissues is not clear. Therefore, TSHR antagonists/inverse agonists could be used as probes of extrathyroidal TSHR function. Finally, TSHR inverse agonists, which are a subclass of antagonists that inhibit agonist-independent (or basal or constitutive) TSHR signaling, could be used to inhibit TSH-independent signaling in patients with recurrent or metastatic thyroid cancer who are receiving thyroid hormone to suppress TSH.
# In collaboration between scientist from the NCGC and the NIDDK, a miniaturized HTRF high-throughput screen was developed. It's a cell based assay, where an anti cAMP antibody contains a fluorescent cryptate tag (excitation 337 nm; emission 620 nm) and the acceptor is cAMP-d2 (excitation 620 nm; emission 665 nm). When antibody and cAMP-d2 interact and are excited by a 337 nm light, a FRET occurs resulting in emission at 665 nm. The assay is competition between cAMP-d2 and cAMP (from the cell lysate). The homogeneous protocol allows for one step dispense after stimulation that is automation friendly. In order to confirm specificity of the compounds to the TSHR, a confirmatory assay was conducted on a similar family member, the Luteinizing Hormone (LH) receptor, transfected into a HEK 293 cell line, using an orthogonal detection technology to measure cAMP stimulation: antibody-based Homogeneous Time Resolved Fluorescence (HTRF).
# NIH Chemical Genomics Center [NCGC]
# NIH Molecular Libraries Probe Centers Network [MLPCN]
# Assay Provider: Marvin Gershengorn, NIDDK
# Homogeneous Time Resolved Fluorescence (HTRF) cAMP Assay. HEK 293 cells stably transfected with a vector containing the LH receptor and maintained under hygromycin selection were obtained from the laboratory of Dr. Marvin Gershengorn. Compounds were assayed using a HTRF cAMP detection kit (Cisbio) on the LH receptor transfected cell line. Briefly, 750 cells were plated in 2.5 ul/well of complete media (DMEM containing 10 % FCS, and 100 uM RO 20-1724) in 1536 well solid bottom white plates and 23 nl/well compound in DMSO solution or controls was added. Following 30 minute incubation at room temperature, 2.5 ul/well of labeled d2 cAMP and 2.5 ul/well of anti-cAMP antibody (both diluted 1:20 in lysis buffer) were added to each well using a flying reagent dispenser (Aurora Discovery, San Diego) . Plates were measured using the Envision plate reader (PerkinElmer, Boston, MA) with excitation at 330 nm and emissions of 615 nm and 660 nm.
# % is scaled to controls: 0 for no effect and ±100 for the full control effect; potency is read from the fitted curve at half-maximal effect; tags tell the direction and shape of the fitted curve.
Structure (SMILES),Potency,"activity change, negative = inhibition"
COC(=O)C1=C(c2ccc(-c3ccccc3)c(F)c2)C[C@@H]2CC[C@H]1N2C(=O)NCCOc1ccccc1,"inconclusive: 338 µM [inhibitor, partial curve, poor fit]",–
Cc1ccc(C[n+]2c(-c3ccc(C)cc3)cc(-c3ccc(C)cc3)cc2-c2ccc(C)cc2)cc1,active: 37.9 µM,–
OCC[n+]1c2ccccc2nc2ccc(N3CCOCC3)cc21,–,inactive: -8.16%
C[C@]12CC[C@H]3C(CCC4(O)CC(O)CC[C@]34C=O)C1=CC[C@H]2c1ccc(=O)oc1 (some centres not stated),–,inactive: -4.69%
CNc1ccc2nc3ccccc3[n+](C)c2c1,"inconclusive: 151 µM [inhibitor, partial curve]",–
CNc1cc(Cl)c2nonc2c1[N+](=O)[O-],"inconclusive: 53.6 µM [inhibitor, partial curve]",–
CC1=CC(=Cc2sc3ccccc3[n+]2C)C=C(C)O1,"inconclusive: 675 µM [inhibitor, partial curve, poor fit]",–

# From PubChem BioAssay AID602293 (National Center for Advancing Translational Sciences (NCATS), 2012)
